Assay results taken from PMC4336329 (PLoS ONE, 2015).
Screen size: about 310,000 compounds; about 14,000 (4.5%) showed an effect of 50% or more. Effects have a minus sign here. Some of the results follow.

biological target: human ether-à-go-go-related gene (hERG) potassium channel (human, UniProt Q12809); experiment: primary screen, population patch clamp on CHO cells stably expressing hERG
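Note: peak tail current of the secondary pulse compared with the same well before compound.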

human ether-à-go-go-related gene (hERG) potassium channel, sequence (Q12809 whole entry, looked up): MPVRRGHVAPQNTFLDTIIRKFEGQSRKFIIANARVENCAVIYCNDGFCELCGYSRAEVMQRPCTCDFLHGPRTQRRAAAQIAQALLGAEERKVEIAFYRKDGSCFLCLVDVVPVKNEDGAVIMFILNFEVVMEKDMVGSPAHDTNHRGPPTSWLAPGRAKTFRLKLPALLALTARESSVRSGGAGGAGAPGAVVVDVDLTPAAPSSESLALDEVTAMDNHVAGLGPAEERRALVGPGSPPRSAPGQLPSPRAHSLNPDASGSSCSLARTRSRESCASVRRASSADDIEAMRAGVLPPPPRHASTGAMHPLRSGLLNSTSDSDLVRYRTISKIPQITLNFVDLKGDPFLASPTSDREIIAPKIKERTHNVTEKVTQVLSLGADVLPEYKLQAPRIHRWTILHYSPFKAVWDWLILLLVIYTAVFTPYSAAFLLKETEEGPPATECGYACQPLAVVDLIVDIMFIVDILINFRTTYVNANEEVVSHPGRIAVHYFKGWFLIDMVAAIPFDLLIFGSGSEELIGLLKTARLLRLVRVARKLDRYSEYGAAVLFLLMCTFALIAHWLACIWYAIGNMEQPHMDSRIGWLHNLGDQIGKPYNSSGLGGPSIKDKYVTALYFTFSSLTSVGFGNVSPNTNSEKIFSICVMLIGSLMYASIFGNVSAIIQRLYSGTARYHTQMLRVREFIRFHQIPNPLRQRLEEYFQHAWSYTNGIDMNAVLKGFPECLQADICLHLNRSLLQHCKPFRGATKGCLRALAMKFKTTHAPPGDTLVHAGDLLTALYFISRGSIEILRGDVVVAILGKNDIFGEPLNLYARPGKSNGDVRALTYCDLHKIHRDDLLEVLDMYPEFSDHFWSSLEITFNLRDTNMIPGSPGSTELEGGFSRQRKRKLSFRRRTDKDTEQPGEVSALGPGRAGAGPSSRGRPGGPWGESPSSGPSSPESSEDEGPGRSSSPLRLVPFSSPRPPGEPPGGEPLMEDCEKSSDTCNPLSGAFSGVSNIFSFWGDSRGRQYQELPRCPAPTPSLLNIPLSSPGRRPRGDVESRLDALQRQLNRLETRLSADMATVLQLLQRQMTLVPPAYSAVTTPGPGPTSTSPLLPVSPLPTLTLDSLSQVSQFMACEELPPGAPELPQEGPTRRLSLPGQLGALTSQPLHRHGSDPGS

SMILES	hERG current change (%, negative = inhibition) at 10uM [%]
COC(=O)CSc1nc(N)c2c3c(sc2n1)C(c1ccccc1)SC(c1ccccc1)C3 (stereo not shown)	29.1
COc1cc(/C=N/NC(=O)CSc2cc(C)c(Br)cc2C)ccc1O	-14.4
CCCC/C(O)=C1\C(=O)CC(C)(C)CC1=Nc1ccc(N)cc1	-11.4
CCCCC(CC)C(=O)N1CCN(C(=O)c2ccco2)CC1 (stereo not shown)	-8.89
Cc1cc(C(=O)COC(=O)c2ccc(F)cc2F)c(C)n1C1CC1	-0.281
O=C(COC(=O)CCc1ccc(S(=O)(=O)N2CCOCC2)cc1)Nc1cccc(Cl)c1	-30.3
O=C(O)C(=O)O.OCCN1CCN(C(=S)Nc2cccc(C(F)(F)F)c2)CC1	3.49
Cc1cc(C(=O)N/N=C/c2ccccc2)c(C)o1	10.7
CC1CCC/C(=N\NS(=O)(=O)c2ccccc2)C1 (stereo not shown)	11.6
Cc1c(C(=O)OCC(=O)Nc2ccccc2OC(F)F)cccc1[N+](=O)[O-]	-6.61
Cc1n[nH]c(C)c1CCCCOc1ccc([N+](=O)[O-])cc1	-16.4
Cc1nc2cc(Cl)c(Cl)cc2n1-c1ccccn1	-48.8
COc1ccccc1-c1nnc(Sc2nc([N+](=O)[O-])nn2C)o1	-6.64
O=C(COC(=O)c1ccc(CSc2ccc(Cl)cc2)cc1)Nc1ccccc1	18.8
O=C(NCCCn1ccnc1)/C(=C/c1cccs1)NC(=O)c1ccco1	-50.8
CCOC(=O)C1(Cc2cccc(OC)c2)CCN(C/C=C/c2ccccc2)CC1	-75.9
Cc1ccccc1N(C(=O)Cc1cccs1)C(C(=O)NCC1CCCO1)c1cccnc1 (stereo not shown)	-16.3
CN(C)Cc1ccc(CNC(=O)COc2ccc3ccccc3c2)cc1	2.62
Cc1cccc(C)c1OCc1nnc(SCC(=O)Nc2nccs2)n1-c1ccccc1	-1.92
Cc1ccccc1NC(=O)CC1SCCNC1=O (stereo not shown)	7.45
Cc1cc(N)c2ccccc2n1	7.4
COc1ccc(CNC(=O)COC(=O)/C=C/c2cccs2)cc1	5.58

SMILES	hERG current change (%, negative = inhibition) at 10uM [%]
CSc1ccccc1C(=O)NC1CCCc2ccccc21 (stereo not shown)	-7.14
NS(=O)(=O)c1cccc(NC(=O)Nc2ccccc2)c1	0.0111
C/C=C/c1ccc(OCC(O)CNCCc2ccc(OC)cc2)c(OC)c1.O=C(O)C(=O)O (stereo not shown)	-73.4
COC(=O)c1ccccc1Oc1ccc(NC(=O)CCCl)cc1	-0.142
COc1ccc(NC(=O)CN2C(=O)NC3(CC(C)CC(C)(C)C3)C2=O)cc1S(=O)(=O)N1CCCCC1 (stereo not shown)	-35.3
C=CCn1c(SCC)nc(O)cc1=O	-10.4
O=C(COC(=O)c1cc([N+](=O)[O-])ccc1N1CCOCC1)c1ccc(Br)cc1	-44.6
O=c1c2ccccc2nc2n1C1(CCCCC1)Cc1ccccc1-2	-6.27
COc1ccc(C(=O)OCC(=O)NC(C)CCc2ccccc2)cc1OC (stereo not shown)	0.524
OC(c1ccc(OCc2ccccc2)cc1)c1nnc(-c2ccccc2)o1 (stereo not shown)	-11.6
CCCC(=O)Nc1cccc(NC(=O)c2ccc(C)c([N+](=O)[O-])c2)c1	-3.03
COc1ccc(CN=C(N)N=C(N)N)cc1Cl.Cl	3.84
CNC(=O)OCCc1n(C)cc[n+]1C.[I-]	13.9
COc1ccc(N(CC(=O)Nc2ccc(F)cc2F)S(=O)(=O)c2c(C)nn(C)c2C)cc1	-12.4
CC1CCCC(C)N1C(=O)Cn1cc(C#N)c2ccccc21 (stereo not shown)	9.8
COc1ccc(CNC(=O)CNC(c2ccccc2)c2ccccc2)cc1OC	-34.4
COc1ccc(NC(=O)CSc2nnc(C3CCCCC3)o2)c(OC)c1	-8.97
CCOC(=O)N1CCN(c2c(N3CCC(N4CCCCC4)CC3)c(=O)c2=O)CC1	14.7
CCOC(=O)C1=C(C)N=c2sc(=C(C)C)c(=O)n2C1c1ccc(N(C)C)cc1 (stereo not shown)	-7.45
COc1cccc(CNC(=O)Cc2csc(Nc3nc(=S)[nH]c4ccccc34)n2)c1	13.5
Cc1ccc(OCCC(=O)OCC(=O)NNC(=O)c2ccccc2)cc1	17.8
O=C(C1CCN(S(=O)(=O)c2cc(Cl)ccc2Cl)CC1)N1CCCC1	-0.339

SMILES	hERG current change (%, negative = inhibition) at 10uM [%]
Cc1nc(Nc2c(Cl)cccc2Cl)sc1C(=O)Nc1ccccc1	-20
COc1ccccc1NC(=S)NCc1ccccc1Cl	-1.31
C=CCn1c(O)c(C(C)=Nc2cc(OC)ccc2OC)c(=O)[nH]c1=O	-0.337
O=c1c(-c2cccc3ccccc23)[n+]([O-])c2ccccc2n1O	8.85
CC(C)OP(=O)(OC(C)C)C1(NS(=O)(=O)c2ccc(Cl)cc2)C=C(Cl)C(=O)C(Cl)=C1	-18.7
COc1ccc(C(=O)Nc2cnc3sc(C)nn3c2=O)cc1	-2.59
CSc1ccccc1OCc1cc(C(=O)NCC(C)(C)N2CCOCC2)no1	-93
O=C(CCN1C(=O)c2ccccc2S1(=O)=O)NCc1ccccc1	-0.597
O=C(NCCn1cccn1)C1CCC(=O)N(CCc2ccccc2)C1 (stereo not shown)	9.33
O=C(NCc1ccc2c(c1)OCO2)c1cc2ncc(Br)cn2n1	-8.1
CC(Nc1cc(N2CCOCC2)ccc1[N+](=O)[O-])c1ccccc1 (stereo not shown)	-2.04
COc1ccccc1CNC(=O)CNC(=O)Cn1cnc2ccccc2c1=O	3.18
CNC(=S)NNC(=O)c1c(C)nc2cc(C)ccn12	7.15
CN(CC(=O)NCCN1CCN(c2ccccc2)CC1)S(=O)(=O)c1ccc2c(c1)CCC(=O)N2	-9.99
C/C=C/C=C\C(=O)Nc1cccc(C2=NOC3(C2)C[C@@H](C(N)=O)N(C(=O)/C(C)=C/C)C3)c1 (stereo partly shown)	7.54
Cc1ccc(C)c(NC(=O)c2ccc(S(=O)(=O)N(C)CC3CCCO3)cc2)c1 (stereo not shown)	-19.3
CCCCc1ccc(NC(=S)NCCCN2CCOCC2)cc1	-9.83
O=C(NNC(=O)c1cccs1)c1csc(N2CCOCC2)n1	16.2
CC(=O)c1c(O)n(C)c(=S)n(-c2ccccc2)c1=O	17.2
Cc1cc(C)c(NC(=S)N2CCN(c3ccc([N+](=O)[O-])cn3)CC2)cc1C	11.8
CCOC(=O)c1ccc(N2C(=O)CC(NC3CCN(C(=O)c4ccc(F)cc4)CC3)C2=O)cc1 (stereo not shown)	-12.6
Cc1[nH]c2ccc(-c3nnc(SCC(=O)c4ccc(F)cc4)o3)cc2c1C	28

SMILES	hERG current change (%, negative = inhibition) at 10uM [%]
CCCN1CCN(CC(=O)Nc2cc(OCC)ccc2OCC)CC1.Cl	-57.6
CN(C)c1nc(C#N)nc(N2CCOCC2)n1	-32.3
CCn1c(CNC(=O)Cc2ccc(OC)cc2)nnc1SCC(=O)Nc1ccc(C(=O)O)cc1	17
Cn1ccnc1SCC(=O)c1ccc(C#N)cc1	-10.5
CC(C)NS(=O)(=O)c1ccc(NC(=O)C2CCCCC2)cc1	2.54
Cc1ccc(-c2noc(CCC(=O)N3CCCc4ccccc43)n2)cc1	-20.6
O=C(Nc1ncn[nH]1)c1ccccc1Br	-3.32
CC(c1ccccc1)n1c(-c2ccncc2)n[nH]c1=S (stereo not shown)	13.3
Cc1cc(C)n2nc(C(=O)OCC(=O)N(CCC#N)c3ccc(F)cc3)nc2n1	22.4
Cn1c(SCC(=O)c2ccccc2)nnc1C1COc2ccccc2O1 (stereo not shown)	-11.9
Cc1cccc(N(C(=O)CCC(=O)Nc2nccs2)C(C(=O)NC(C)(C)C)c2ccc(O)cc2)c1 (stereo not shown)	10.3
O=C(CCCc1c[nH]c2ccccc12)NCc1ccccc1C(F)(F)F	13.1
NC(=O)C1CCN(C(=O)c2ccc(NS(=O)(=O)c3ccc(F)c(F)c3)cc2)CC1	-3.95
Cc1ccccc1CCNC(=O)CCn1nc(C)c2c(C)n(-c3ccccc3)nc2c1=O	-13.5
CC(C)Cn1c(N)c(C=O)c(=O)n(C)c1=O	26.4
Cc1ccc(NC(=O)CSc2nccn2Cc2ccccc2)cc1C	-17.4
O=C(NCCN1CCOCC1)c1ccc(/C=C2\Sc3ccccc3N(Cc3ccc(F)cc3)C2=O)cc1	11
O=C(CCCOc1ccc(Cl)cc1Cl)Nc1ccncc1	-12.6
CSc1nc2sc3c(c2c(=O)n1C)CCC3	10.8
COc1ccc(S(=O)(=O)N(CC(=O)O)c2ccccn2)cc1	6.31
CN1CCN(CC(=O)Nc2cc(N3CCOCC3)ccc2[N+](=O)[O-])CC1	33.8
O=C(Oc1ccc(N(Cc2cccs2)C2=NS(=O)(=O)c3ccccc32)cc1)c1ccc(Cl)cc1	-6.15
